# Test results taken from article PMC4336329 (PLoS ONE, 2015).
# Among all 310,000 compounds or so, about 14,000 (4.5%) showed an effect of 50% or more. The effect is printed as a negative number. This is one part of the list.
# Target: human ether-à-go-go-related gene (hERG) potassium channel (human, UniProt Q12809)
# Test: primary screen, population patch clamp on CHO cells stably expressing hERG
# 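Also: peak tail current of the secondary pulse compared with the same well before compound.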
# Chain of human ether-à-go-go-related gene (hERG) potassium channel (Q12809 whole entry, looked up): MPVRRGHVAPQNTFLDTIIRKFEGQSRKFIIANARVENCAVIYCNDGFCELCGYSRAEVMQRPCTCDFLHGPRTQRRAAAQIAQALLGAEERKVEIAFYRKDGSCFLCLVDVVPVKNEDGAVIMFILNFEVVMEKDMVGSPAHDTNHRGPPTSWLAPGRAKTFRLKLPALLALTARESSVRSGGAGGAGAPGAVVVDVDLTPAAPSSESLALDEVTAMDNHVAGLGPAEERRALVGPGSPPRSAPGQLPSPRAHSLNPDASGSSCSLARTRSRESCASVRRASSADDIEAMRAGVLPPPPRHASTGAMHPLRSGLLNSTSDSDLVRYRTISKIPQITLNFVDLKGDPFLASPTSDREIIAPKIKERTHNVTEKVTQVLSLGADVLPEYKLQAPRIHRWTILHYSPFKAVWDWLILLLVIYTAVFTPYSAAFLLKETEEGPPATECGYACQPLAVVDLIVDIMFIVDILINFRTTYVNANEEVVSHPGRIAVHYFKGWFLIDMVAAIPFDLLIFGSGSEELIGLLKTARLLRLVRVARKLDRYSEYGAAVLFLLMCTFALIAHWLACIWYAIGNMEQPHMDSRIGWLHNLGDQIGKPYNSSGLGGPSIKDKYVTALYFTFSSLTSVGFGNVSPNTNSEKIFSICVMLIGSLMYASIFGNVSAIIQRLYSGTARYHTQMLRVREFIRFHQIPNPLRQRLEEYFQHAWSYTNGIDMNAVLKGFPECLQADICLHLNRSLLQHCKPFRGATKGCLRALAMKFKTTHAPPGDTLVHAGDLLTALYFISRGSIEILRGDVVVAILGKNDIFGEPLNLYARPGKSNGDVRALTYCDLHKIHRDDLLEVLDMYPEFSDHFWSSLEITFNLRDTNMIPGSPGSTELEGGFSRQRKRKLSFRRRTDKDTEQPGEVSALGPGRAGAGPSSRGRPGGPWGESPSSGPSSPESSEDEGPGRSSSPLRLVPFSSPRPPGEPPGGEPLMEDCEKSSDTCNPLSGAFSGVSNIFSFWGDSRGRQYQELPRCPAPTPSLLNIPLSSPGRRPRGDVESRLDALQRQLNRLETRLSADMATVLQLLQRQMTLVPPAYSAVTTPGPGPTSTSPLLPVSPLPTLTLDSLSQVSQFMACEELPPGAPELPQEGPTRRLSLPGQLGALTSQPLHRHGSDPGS
row,SMILES,"hERG current change (%, negative = inhibition) at 10uM"
1,Cc1cc2oc3c(c(=O)c2cc1C)C(c1ccc(F)cc1)N(CCCN1CCOCC1)C3=O (stereo not drawn),-22.8%
2,Cl.O=[N+]([O-])c1ccc(OCC(O)CNC2CCCC2)cc1 (stereo not drawn),-76.2%
3,COc1ccccc1CNC(=O)Cn1ccc2cc(S(=O)(=O)N3CCCC3)ccc21,-3.32%
4,O=S(=O)(Nc1nc2ccccc2nc1NCc1ccco1)c1ccccc1,7.96%
5,c1ccc(-c2csc(-c3ccncc3)n2)cc1,-43.2%
6,CCc1ccc(NC(=O)Nc2ccc3c(c2)N(C)C(=O)CS3)cc1,7.64%
7,CCCCn1c(CN2CCN(C(=O)OCC)CC2)nc2c1c(=O)[nH]c(=O)n2C,6.72%
8,COc1ccc(N/C(N)=N/c2nc(C)cc(=O)[nH]2)cc1,8.38%
9,CCC(CO)NC1=C([N+](=O)[O-])C(=O)CC(C)(C)C1 (stereo not drawn),5.24%
10,Cc1ccc(NC(=S)NC(=O)c2ccc(-c3ccccc3)cc2)cc1,-9.58%
11,Cc1cc(C)n(-c2ccc(F)cc2CN2CCN(C3CCCC3)C(CCO)C2)n1 (stereo not drawn),-24.2%
12,Cc1ccccc1CN1[C@@H](CC2CCCCC2)COCCS1(=O)=O,-10.8%
13,CCCNC(=S)N(Cc1cc2cc(C)ccc2n2nnnc12)CC(C)(C)CN(C)C,11.4%
14,Cc1ccccc1C(=O)N1c2ccccc2OCC1C(C)(C)C (stereo not drawn),14.9%
15,Cc1ccc(-c2ccc(CCC(=O)O)n2-c2ccc(C(=O)O)cc2)cc1,16.8%
16,CCN(c1ccccc1)S(=O)(=O)c1ccc(OC)c(NC(=O)C2CC2)c1,-37.6%
17,BrC(=C\c1ccccc1)/C=N/N1CCN(c2ccccc2)CC1,12.7%
18,O=C(c1cc(COc2ccc(F)cc2F)on1)N1C[C@H]2CC[C@H]1C2,1.98%
19,CCO.COc1ccc(CNc2nc3ccccc3n2Cc2ccc(Cl)cc2)cc1OC,-16.2%
20,Cn1nnnc1SCCNCc1ccccc1OCc1ccccc1,-9.36%
21,CCOC(=O)CNC(=O)c1cc(-c2ccc3c(c2)OCCO3)oc1C,-13.4%
22,O=C1/C(=C/c2cccnc2)CCc2c1[nH]c1ccccc21,-15.4%
23,O=C(Nc1ccc(-n2cnnn2)cc1)C1CCC1,11.3%

row,SMILES,"hERG current change (%, negative = inhibition) at 10uM"
1,Cc1cc2cc(CN3C(=O)c4ccccc4C3=O)ccc2n1C,15.6%
2,O=C(COc1ccc(/C=N/NC(=O)c2cccnc2)cc1)Nc1ccccc1,8.67%
3,CC1CC(C)CN(C(=O)COC(=O)c2c[nH]c3ccccc23)C1 (stereo not drawn),-18.3%
4,O=C(CC1CCCCC1)N1CCC(c2nc(-c3ccc(S(=O)(=O)N4CCCC4)cc3)no2)CC1,-9.47%
5,COc1ccc(CC(=O)N/N=C/c2c(C)n(C)c3ccccc23)cc1OC,-0.309%
6,CN(C)/C=C/C(=O)c1ccccc1,1.07%
7,Cc1cccc(NC(=O)c2cccc(C(=O)Nc3cccc(C)c3C)n2)c1C,15.1%
8,COc1ccc(COCC(O)CN2CCC(C(N)=O)CC2)cc1OC (stereo not drawn),-7.47%
9,Cn1c(C(=O)NCCCN2CCN(c3cccc(Cl)c3)CC2)cc2c(=O)n(C)c3ccccc3c21,9.13%
10,COc1ccc(OC)c(C(C)NC(=O)Nc2cccc(C(C)=O)c2)c1 (stereo not drawn),8.24%
11,Cc1ccc(/C=c2\sc3nc(-c4ccco4)nn3c2=O)o1,-0.405%
12,CCOC(=O)c1cnc2cc(-c3ccc(Br)cc3)nn2c1C,21.4%
13,CCC(C)c1ccc(NC(=O)C2CCN(c3ccc(C(F)(F)F)cn3)CC2)cc1 (stereo not drawn),3.66%
14,O=C(CC1CCCC1)Nc1cc(C(F)(F)F)ccc1-n1cncn1,-10.4%
15,O=C1Nc2ccccc2N=C(c2ccccc2)C1N1CCOCC1 (stereo not drawn),12.7%
16,CCCCNCCOCCOc1ccc(F)cc1,1.2%
17,Cc1ccc(OCC(=O)Nc2ccc(S(=O)(=O)N3CCN(C)CC3)cc2)cc1,-6.8%
18,O=C1c2ccccc2NC(c2cccc(O)c2)N1Cc1ccco1 (stereo not drawn),-14.5%
19,CC(C)CNC(=S)NNC(=O)c1ccccc1OC(F)F,-0.213%
20,COc1ccc(NC(=O)Nc2ccc3[nH]ccc3c2)cc1,14.1%
21,c1nc(N2CCN(Cc3ccc4c(c3)OCO4)CC2)c2[nH]cnc2n1,-13.3%
22,CCN(CC)CCSc1nc2ccc(OC)cc2[nH]1.Cl,-64.7%
23,CCc1nc(N2CCN(C(=O)c3ccccc3)CC2)c(C#N)c2c1COC(C)(C)C2,-46.5%

row,SMILES,"hERG current change (%, negative = inhibition) at 10uM"
1,NC(=O)c1sc2cc(C(F)(F)F)cnc2c1-c1cccs1,3.94%
2,O=C(NN=C1CCCC1)c1cc(Br)ccc1O,-1.78%
3,O=C(c1ccc(C(F)(F)F)cc1)C1CCCN(C(=O)CCc2cnccn2)C1 (stereo not drawn),-15.1%
4,O=C(CN1C(=O)C2C3c4ccccc4C(c4ccccc43)C2C1=O)N1CCOCC1 (stereo not drawn),-16.6%
5,CS(=O)(=O)N1CCC(C(=O)Nc2cc(Cl)cc(Cl)c2)CC1,4.85%
6,CCOC(=O)c1nc(C)n(-c2cc(Cl)ccc2Cl)n1,1.64%
7,CCC1C(=O)NCCN1Cc1nc(-c2ccc(C)s2)oc1C (stereo not drawn),27.9%
8,FC(F)(F)c1cccc(-n2c(Cn3nnc4ccccc43)n[nH]c2=S)c1,18.3%
9,COc1ccc(-n2c(SCCC(=O)O)nnc2-c2ccncc2)cc1,2.34%
10,Cc1ccc([N+](=O)[O-])cc1-c1ccc(/C=C(\C#N)c2[nH]nc(N)c2C#N)o1,12.1%
11,CCCn1ccnc1SC(C)C(=O)Nc1c(C)n(C)n(-c2ccccc2)c1=O (stereo not drawn),16.9%
12,O=C(OCCc1cc2ccccc2c(=O)o1)c1ccc(F)cc1,3.89%
13,CC(=O)Nc1nc(C)nc(C)c1C(C)=O,13.8%
14,CC(=O)Nc1ccc(NC(=O)COC(=O)c2cc(S(=O)(=O)N(C)C)ccc2N2CCCC2)cc1,-9.08%
15,C/C(=N/N1CCN(Cc2ccccc2)CC1)c1ccc(Br)cc1,-19.9%
16,CC1CCc2cc(F)ccc2N1S(=O)(=O)c1ccc(Cl)nc1 (stereo not drawn),6.3%
17,COc1ccc(OCC(=O)N2CCN(c3cccc(Cl)c3)CC2)cc1,-29.7%
18,Cc1cccn2c(NCc3ccc4c(c3)OCO4)c(-c3ccc(O)cc3)nc12,-22.6%
19,CCn1c(SCC(=O)NCc2ccccc2)nnc1-c1c[nH]c2ccccc12,-25.2%
20,O=C(c1cc2ccccc2cc1O)N1CCCC(C(F)(F)F)C1 (stereo not drawn),-1.59%
21,Cn1cc(CN2CCCC(C(=O)c3cccs3)C2)c(-c2cccc(Cl)c2)n1 (stereo not drawn),-39.2%
22,COC(=O)N1C(=O)[C@@](c2ccc(OC)cc2)(C(C)C)N1C(=O)OC,14.5%
23,CC(Sc1nc2c(c(=O)[nH]1)CCCC2)C(=O)Nc1ccc(S(N)(=O)=O)cc1 (stereo not drawn),16.4%

row,SMILES,"hERG current change (%, negative = inhibition) at 10uM"
1,CCOc1ccc(OCCN2C(=O)NC(Cc3c[nH]c4ccccc34)C2=O)cc1 (stereo not drawn),-11.5%
2,Cc1ccc(C)c(N(CC(=O)NC2CCCC2)C(=O)CCC(=O)Nc2nccs2)c1,-16.8%
3,O=C(O)c1cccc2c1C(=O)c1ccc(-c3ccc(F)cc3F)cc1S2(=O)=O,13.8%
4,Cc1cc2nc3c(nc2cc1C)C1(C(=O)N(C)C)CCC3(C)C1(C)C (stereo not drawn),-2.51%
5,O=C(CN1CCCCCCC1)N/N=C/c1ccc(F)cc1F,-43.3%
6,C[C@@H](C(=O)CC(=O)OC(C)(C)C)[C@@H](O)c1c(F)cccc1Cl,12.2%
7,CCN1CCN(C(=O)C(C)Oc2ccc(S(=O)(=O)N3CCCC3)cc2C(N)=O)CC1 (stereo not drawn),-27%
8,COc1ccc(CNC(=O)CSc2nnc(-c3ccc(NC(C)=O)cc3)n2C)cc1,-0.285%
9,CC(NCc1ccc2c(c1)OCO2)C(=O)NC1CCCc2ccccc21.O=C(O)C(=O)O (stereo not drawn),-22.6%
10,CCOc1ccc(NC(C)=O)cc1N,9.48%
11,CCC(C)Sc1nc2c(c(=O)[nH]c(=O)n2C)n1Cc1ccccc1Cl (stereo not drawn),12%
12,C=CCNC(=O)c1ccccc1NC(=O)COc1ccc(OC)cc1,18.4%
13,Cc1cc(C)nc(NC(=O)/C=C/c2cccs2)c1,-5.84%
14,Cc1cc(C)nc(NC(=O)c2cc3ccccc3o2)n1,6.65%
15,CC(=O)N(Cc1cc(=O)[nH]c2ccccc12)c1ccccc1C,17.1%
16,CSc1nc2ccc(NC(=O)c3ccco3)cc2s1,-34%
17,Cc1cc(C)cc(NC(=O)CN2C(=O)c3ccccc3C2=O)c1,13.3%
18,Cc1ccnc2nc(NC(=O)c3ccco3)nn12,15.4%
19,On1nnc2c3ccccc3c3ccccc3c21,23.9%
20,COc1ccccc1NC(=O)Nc1nc(CC(=O)NCc2c(F)cccc2F)cs1,14.5%
21,CCN(CC)CCNC(=O)C1CCC(=O)N1CCc1ccccc1 (stereo not drawn),0.312%
